Laboratory results as given in the supplement of paper PMC3334620.
In all, about 33,000 sequences were measured (“E-score (-0.5 to 0.5)”: median about -0.01, highest 2% from about 0.26 on). Some of the results follow.

molecular target: Ste12 (UniProt P13574); assay: PBM E-score (8-mer binding enrichment) (E-score (-0.5 to 0.5)); higher = stronger / more preferred TF binding; most listed sequences are background and not binding sites; conditions: protein concentration: 200 nM; construct: GST-DNA-binding domain
Method in brief: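 GST-tagged yeast TFs (full-length or DNA-binding domain) were made by PURExpress in vitro transcription/translation and applied at about 100-200 nM to universal all-10-mer Agilent arrays. The arrays were made double-stranded by primer extension, on fresh or once-stripped slides. Bound protein was detected with fluorescent anti-GST, and scans were normalised with masliner. Each ungapped eight-base word, pooled with its reverse complement, received an E-score (modified Wilcoxon-Mann-Whitney statistic) from the Universal PBM Analysis Suite.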

| Sequence | PBM E-score |
| --- | --- |
| ACACGTAG | -0.209 |
| CCTCGAGA | -0.0989 |
| ACCTCACT | -0.0335 |
| GCGGGACC | -0.0673 |
| GAGCTTTA | -0.0834 |
| TAGACGGA | -0.167 |
| AAGCTGCT | -0.00578 |
| TCACGCGA | -0.0813 |
| AACGGGAG | -0.0016 |
| GCACGCAC | -0.322 |
| ACACATAA | 0.19 |
| CCCCTTAA | -0.0805 |
| TCTCGGCA | 0.0266 |
| ACTCTCCG | -0.0208 |
| TATTACCA | 0.0872 |
| CTCCTAGC | -0.234 |
| ACGAATAG | -0.145 |
| CCAGTAGG | -0.117 |
| ACGGAGGC | -0.187 |
| GGAGTTGA | -0.134 |
| GATCACGC | -0.0749 |
| TCCCGCAA | 0.18 |
| CGTGACGA | -0.0638 |
| ACACTACA | 0.0965 |
| ACCAATTA | 0.199 |

| Sequence | PBM E-score |
| --- | --- |
| GACAACAC | -0.0985 |
| CGAGTCGC | -0.22 |
| AAGCGCAT | -0.0201 |
| TATAGTAA | 0.142 |
| CCCCCCTC | -0.244 |
| TAGTACGA | -0.032 |
| GACCGTTA | -0.0768 |
| TCAGGACA | 0.00818 |
| CGCGTCTC | 0.00942 |
| CATCGCAC | 0.119 |
| ACTCTTAT | 0.0959 |
| GCGGTAGA | -0.189 |
| TATACAGA | 0.0992 |
| CGCATACA | -0.107 |
| ACCTAAAA | 0.187 |
| GGCGTTCA | -0.163 |
| CAGTACCC | 0.0435 |
| ACCCACTG | -0.0728 |
| ACCCCTCG | -0.0124 |
| GCTCCACC | -0.122 |
| AGCTCAAC | -0.0948 |
| AGTGACTG | -0.187 |
| ACCGTCGG | -0.185 |
| ATCGCCGG | 0.0652 |
| AACCCATA | 0.142 |

| Sequence | PBM E-score |
| --- | --- |
| GTTTTTAA | 0.261 |
| ACATGATG | -0.00206 |
| AATTACGG | 0.13 |
| ATAGAATC | -0.016 |
| TCTCTGAA | 0.0805 |
| GCTCTACC | -0.167 |
| AAAAAGAA | 0.289 |
| AGTATCCC | -0.0151 |
| AACATTGT | 0.195 |
| AATGAAAT | 0.231 |
| AACTCGGT | -0.078 |
| GATGCTAC | 0.0691 |
| CCCGTGCC | -0.218 |
| AGCGGCCA | -0.162 |
| CGATCCCC | 0.136 |
| AAAATAGA | 0.203 |
| ATTCAGTC | 0.0689 |
| AAATCACA | 0.0138 |
| ACGAGAGA | -0.00943 |
| ATGATGGC | 0.035 |
| AGCTACAA | -0.177 |
| AAAATCTA | 0.162 |
| AAACTCTA | 0.162 |
| CAGGTTAA | 0.0769 |
| CTATGAGA | -0.0998 |

| Sequence | PBM E-score |
| --- | --- |
| AGTGCTGC | -0.169 |
| CAGTTATC | -0.0257 |
| GGTGGTAA | 0.139 |
| TGGAAGAA | 0.247 |
| ATCATGCC | -0.0639 |
| ACTCTACC | -0.0775 |
| AGTCGGTA | -0.074 |
| ATTGCGAA | 0.0458 |
| AACCCAGG | -0.0295 |
| AAAGAGTG | -0.00379 |
| CACTGCGC | -0.00321 |
| AGTAAAAG | 0.183 |
| GTCCACTA | 0.0217 |
| CGAAAGTC | -0.0427 |
| GTCAAGTA | -0.182 |
| AGGAGAGA | 0.0388 |
| CAAAAGTG | 0.00054 |
| CGCTGTCC | -0.148 |
| GAGACTCC | -0.175 |
| AAAGTACT | -0.0212 |
| CCCACAGC | -0.0421 |
| AGCCCGGC | -0.0732 |
| CATAACCA | 0.0804 |
| ATTAGTGA | 0.187 |
| GTGAGTCA | -0.219 |

| Sequence | PBM E-score |
| --- | --- |
| AACGAGTC | -0.202 |
| AGCATTGG | -0.138 |
| AGCCTCGC | -0.155 |
| GTAAGAAA | 0.131 |
| CATCCACC | 0.108 |
| CCAGACCG | -0.0555 |
| GGCATGTA | 0.0214 |
| TATGGTAA | 0.227 |
| GCGTGGAA | -0.165 |
| GTACAAAC | 0.105 |
| ACCATGTG | 0.0791 |
| TCCCATCA | -0.0913 |
| AAAGCGTC | -0.146 |
| ATAATTAG | 0.239 |
| AATGAAAG | 0.0381 |
| AAGAGTCA | -0.0851 |
| AGCGAGTG | 0.0509 |
| GTGTGCTA | -0.12 |
| ATAACACC | 0.195 |
| TCAATACA | 0.2 |
| GAGCGAAC | -0.0971 |
| CGGTATGA | 0.0297 |
| GAGCGTCA | -0.0754 |
| CATGCGTC | -0.0607 |
| ATATCTCG | 0.0439 |

| Sequence | PBM E-score |
| --- | --- |
| AGCCGAGC | -0.0523 |
| AGGGTAGC | -0.145 |
| GGGTGAAA | 0.315 |
| AGATTAAG | 0.0401 |
| GGTGTCTA | -0.0731 |
| ATTAACTC | 0.0478 |
| GCCGTGAA | 0.0793 |
| TGGCGCAA | 0.0618 |
| AGAGCACC | -0.207 |
| AGTCGACG | 0.12 |
| CACCCCGA | 0.0505 |
| TGTTCTAA | 0.218 |
| AACGGGAC | -0.00838 |
| GCACGTCC | -0.00813 |
| ATCCTCGC | -0.0196 |
| CGCGCGCA | 0.208 |
| ATAAGCAG | 0.116 |
| ACCCGGGC | 0.0876 |
| CGTACGGA | 0.0634 |
| ACTATACC | 0.176 |
| CCTAGAGG | -0.241 |
| GTTGACCA | -0.133 |
| AAGTTACT | -0.0151 |
| CAGTCCAA | -0.0933 |
| ACACGAGA | 0.104 |

| Sequence | PBM E-score |
| --- | --- |
| ATGGGCCA | -0.156 |
| CGCCCGAC | 0.134 |
| AATATAAC | 0.26 |
| AAATGGTT | 0.0425 |
| AATCCACG | 0.0269 |
| ATGAAGTC | -0.0947 |
| TAAGCATA | 0.0934 |
| CTAGTACC | -0.171 |
| GTAGGATA | -0.0715 |
| ACGAGAAG | 0.0375 |
| AAAAAAGA | 0.182 |
| ACGTGATA | -0.072 |
| TCACCGAA | 0.0426 |
| AATTAGCA | 0.0489 |
| CTACTCGA | -0.0222 |
| AATAAACC | 0.269 |
| ATTAACGC | 0.048 |
| TCGCCAGA | -0.066 |
| AGCGGACA | -0.0813 |
| ACATAAAC | 0.239 |
| AAGTGTTA | 0.135 |
| TACTACAA | 0.209 |
| AGACAGCA | -0.0579 |
| CATACTCG | 0.0991 |
| ACCGAAAG | -0.0851 |

| Sequence | PBM E-score |
| --- | --- |
| AGCCAAGG | -0.0345 |
| AAAACTTA | 0.0704 |
| CCTTGCCC | 0.0507 |
| AATTTCAG | 0.0479 |
| AATAACCG | 0.0816 |
| ATAACTTG | 0.16 |
| TCCGTCAA | 0.0611 |
| ATTTACAA | 0.134 |
| AGGGGGGC | -0.256 |
| AACTAGCC | -0.197 |
| GAAGCGGC | -0.162 |
| GACGTGAA | 0.0942 |
| ACAGCAAG | 0.147 |
| ACGGCCCC | -0.204 |
| CAGGAACA | -0.125 |
| CTAGACAA | -0.0777 |
| CTAGTCGC | -0.129 |
| ATTGATCG | -0.0607 |
| ATGGCAGA | 0.101 |
| GTTTGTTA | 0.169 |
| AAACTGCG | 0.063 |
| ATGCGCGG | -0.0784 |
| CACACCAC | -0.0727 |
| AATCCTTC | -0.223 |
| TACGTTCA | -0.194 |

| Sequence | PBM E-score |
| --- | --- |
| ATGATGCG | -0.0155 |
| CCCGAGTC | 0.0359 |
| CCGCGCCG | 0.0255 |
| CAACGTGA | 0.0802 |
| GCGGAACC | 0.0647 |
| ACGCTACA | 0.0976 |
| GGTCCGAA | 0.112 |
| ACACCAAC | 0.0319 |
| AGACTAGA | -0.168 |
| TGTTGTAA | 0.28 |
| TCACAGGA | 0.122 |
| CCATCTTC | 0.0246 |
| TACATATA | 0.24 |
| CTGTTTTA | 0.308 |
| CAACATGC | -0.0394 |
| CGAGTGGA | -0.176 |
| AAAAGGTC | 0.0321 |
| GCACCGGA | -0.0313 |
| CCAATACC | -0.0256 |
